# Data published in the supplement of paper PMC11417369.
# ± gives the standard deviation of the averaged measurements. This is one part of the list.
# System: PfAP2-EXP AP2 domain (GST-tagged)
# Experiment: gcPBM binding intensity (ln(normalized median fluorescence intensity)); higher = stronger DNA binding
# How it was run: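 Binding intensity is defined as the maximum Masliner-normalised natural-log median intensity across replicate spots for either probe orientation. It was measured on an Agilent 4 × 180k array of primer-extended double-stranded 36-bp intergenic genomic probes and negative controls, to which GST-tagged P. falciparum DNA-binding domains made in E. coli were applied for 1 h in 1× PBS with 1% milk, 0.2 mg/ml BSA, 0.5% salmon testes DNA and 0.03% Triton X-100. Detection was by Alexa488 anti-GST antibody and scanning at 488 nm.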
row,Sequence,gcPBM binding intensity (ln)
1,AGAGCTGTTTTTTATGCATGTAGTTTAGAAAATACA [TGCATGCA_site257],8.69 ± 0.33
2,CTTTGTAGTATATTAACACACAACTGTTTATAATAT [CACACA_site6038],8.49 ± 0.42
3,TATATACTCATGCGCACACACAAGTGGGAAATTTGG [CACACA_site5056],8.98 ± 0.38
4,TTCTTTAAAAAATTCGATAAAAAAAAAAAAAGAAAA [CACACA_negctrl_site242],8.37 ± 0.45
5,GGAAAGACAGTTCACAGTACCCAGGAAATCTACGGA [XGTACX_site1996],8.69 ± 0.52
6,ATATACATATATATTGCATGCAGAGAGTATTTATAA [TGCATGCA_site646],10.085 ± 0.007
7,ATATATATATATATTGTGCACAAAAAAAAATAAGCA,10.1 ± 0.16
8,ATATATTATAGGTACACACACATATAAGGGATTATA [CACACA_site6154],8.71 ± 0.39
9,TTATTAAATATGTACACACGTACATTTTATAAATGA [CACACA_site2387],8.12 ± 0.3
10,TATATATATATTTAGTGTACTTAAAAAAAATAATAA [XGTACX_site5454],9.375 ± 0.021
11,TATTTTTTTTTCCATTGTACATTTTTGATATTTTTC [XGTACX_site744],8.84 ± 0.59
12,ATAATAATAAAATATATATACAAAGGTGAAATTATA [TGCATGCA_negctrl_site197],8.79 ± 0.32
13,AAGTAAAATAAGTATACACACATAAATATATATATA [CACACA_site685],9.61 ± 0.18
14,TATAATAATACGTATTGTACTATTAGGTTAATTCGT [XGTACX_site264],8.34 ± 0.33
15,TCTATAAAGGAATATACACACATATATATATATATA [CACACA_site410],10 ± 0.26
16,ACTTGTAAGAAACACACACACACACCCATATATATA [CACACA_site796],8.79 ± 0.34
17,TTTTCTTGTAAATTACGTACGAATGTGTAGAGAAAT [XGTACX_site1339],9.02 ± 0.42
18,ATCCTCTTTACAATATGTACATAAATATATATTTAT [XGTACX_site8001],9.15 ± 0.33
19,TATTTATTTATTTATTTATTTATTTATTTATATTTA [CACACA_negctrl_site398],8.41 ± 0.29

row,Sequence,gcPBM binding intensity (ln)
1,TATATATTTTTATTATGTACATATTAACAATGTGTT [XGTACX_site879],8.49 ± 0.4
2,TATATATATAAATACACACACATATATATATATATA [CACACA_site4867],10.2 ± 0.25
3,TAAAATATAAAACACACACACATATATATATATATT [CACACA_site224],8.54 ± 0.43
4,TTTGAGATAAAAGACTGTACTTAGAATGTATAAAAA [XGTACX_site203],8.53 ± 0.33
5,TTTAATTTTATATAGAGTACAAAAAAATAGAAAGAT [XGTACX_site3870],8.91 ± 0.48
6,ATATATATATATATATGTACATAAATATTTTAAAAT [XGTACX_site4980],10.3 ± 0.4
7,AAAAAAAAAAAAAACTGTACCAAAAAGAATATATAC [XGTACX_site8345],8.79 ± 0.54
8,TTGTTTCTACAATTTAATAAAATACGTTTTCAAAAA [XGTACX_negctrl_site377],8.15 ± 0.52
9,TACTCCTTAAATATATGTAAAGGAAGAAAAAAAAAA [XGTACX_negctrl_site306],8.54 ± 0.53
10,ACAATAAAAATAAAAAGTACAAATAAAAAAAATAAA [XGTACX_site6718],8.73 ± 0.4
11,AATATATGTTTAATTTCACACACAAATATACATTTT [CACACA_site9385],8.56 ± 0.35
12,ATATATATATATATATGTACACATATACGCTTTTTC [XGTACX_site3838],10.3 ± 0.28
13,ATATGTCACTTGTATACACACATATATATTTCAATC [CACACA_site3256],9.32 ± 0.54
14,TTACTTATAAATAAATATACAAAAATGTTATATATA [XGTACX_negctrl_site223],7.96 ± 0.45
15,CTGAAAAAAAAGCTTGCACACGTATTTGCTTTATGT [CACACA_site8427],8.47 ± 0.46
16,TTTTTTGTGTTTGGTACACACGTTATAAAAAATAAA [CACACA_site4866],8.45 ± 0.37
17,TTTTTTTTTTTTGAAGTGCATTACTTTTTTTGTATT [GTGCAC_site9811],8.5 ± 0.23
18,AGGAATATAAAGTGCACACATAATTTGGGGGCAAAA [CACACA_site258],9.59 ± 0.23
19,GAAAATAGCTAAAATACACACAATTAAAAATTATTA [CACACA_site3506],8.3 ± 0.31

row,Sequence,gcPBM binding intensity (ln)
1,TTGTAAAACTTATAATGTACATTTTTTTTTTTTTTT [XGTACX_site5398],8.43 ± 0.28
2,AGGGACATCTATATCACACACAAAAATTAGTCCCTT [CACACA_site7330],8.63 ± 0.46
3,TTTTTTTTTTTTTGCACACACATTGAATTATTATTC [CACACA_site197],8.62 ± 0.34
4,TATATAGAGAGATATGCACACTGTATGAATGCCCCC [CACACA_site5476],10.3 ± 0.38
5,TATACCTATATACATACATGCAAATATATATTCATA [TGCATGCA_site269],8.77 ± 0.17
6,ATAAGAAAATATAAAATGCACACTATAAATTGTATA [CACACA_site143],8.52 ± 0.35
7,TTTAAAAATAAAAGTACACACATAAACATATTACAC [CACACA_site1428],8.88 ± 0.36
8,TATAATACAACATGCACACATATATATGTGAATCTC [CACACA_site2490],8.87 ± 0.33
9,ATAAAATAAACATAAATAAACATAAATAAACAAAAA [CACACA_negctrl_site1270],8.75 ± 0.4
10,AGGTATATATACATATGTACGTATATATATATATAT [XGTACX_site5115],10.1 ± 0.13
11,GGCGTATGTGTATATACACACCCACGTATATAAATA [CACACA_site7489],8.68 ± 0.42
12,TTTCTAATTTATATCACACACATATTTATATAGTAA [CACACA_site6813],8.4 ± 0.33
13,TTATATAAATTATTTACACACAAACATTTATACTTT [CACACA_site3449],8.38 ± 0.36
14,ATACTTTATTCGTTAGCACACAATTCAAGTTGATTC [CACACA_site1123],8.71 ± 0.42
15,TATTCCCTTCTTCCTTCTGTTTTTGATATTAAAGGG [GTGCAC_negctrl_site270],8.71 ± 0.49
16,AAGATACCCCAAAATTGTACATATTAAAATAATAAA [XGTACX_site3603],9.12 ± 0.48
17,ATATTCATATATACTTCACACACATTTTATCATTCA [CACACA_site8784],8.71 ± 0.39
18,AAAAAAAAAAATAAATAAATAAATAAATATATATAT [TGCATGCA_negctrl_site468],9.27 ± 0.028
